This is an account of results in the RNAGym collection of RNA variant scans (doi:10.7554/elife.90254).

The source gives no read counts; variants with many changes may rest on few reads.

The labels stand for the following.
B1: LINE1-mini (parent)
chain: GGCAGAGCUCAACACAGCGUGGCAAAGUGGCUGUGGCUAGACUGCC

In this data set the parent is B1. Kind of data set: self-cleavage, relative activity (ratio to wild type); higher = more cleavage; in vitro, sequencing; the parent is a self-cleaving ribozyme.
As to GGCAGAGUUCAACAGAGCGUGGCAAAUUGGCUGUGGCUAGACUGCU [C8U C15G G27U C46U], the self-cleavage was 0.12.

Regarding GGCAGAGUUCAACACAACGUGGCAAAGUGGCAGUGGAUAGACUGCC [C8U G17A U32A C37A], the self-cleavage turned out to be 0.2.

As for GGCAGAGUUCAACACACCGUGGCAAAGUGGCUGUGUCUAGACAGCC [C8U G17C G36U U43A], the self-cleavage came to 0.12.

On to GGCAGAGUUCAACACAGAGUGGCAAAGUGGCUGUGGCUAGACUGCA [C8U C18A C46A], for which the self-cleavage worked out at 0.06.

GGCAGAGUUCAACAUAGCGGGGCAAAGUGGCUGUGGCUAGACUUCC [C8U C15U U20G G44U]: the self-cleavage came to 0.1.

As for GGCAGAGUUCAACAGAGCGCUGCAAAGCGGCUGUGGCUAGACUGCC [C8U C15G U20C G21U U28C], the self-cleavage was 0.01.

In the case of GGCAGAGUUCAAGACAGCGUGGCAGAGUGGCUGUGGCUAGACUGCC [C8U C13G A25G], the self-cleavage was found to be 0.2.

Take GGCAGAGUUCAAGACAGCAUGGGGAAGUGGCUGUGGCUAGACUGCC [C8U C13G G19A C23G A24G]: the self-cleavage was 0.12.

GGCAGAGUUCAACACAGGGUGGCAAAGUGGCUGUGGCUAGACAGCC [C8U C18G U43A]: the self-cleavage came to 0.07.

Take GGCAGAGUUCAAAACAGCGGCGAAAAGUGGCUGUGGCUAGACUGCC [C8U C13A U20G G21C C23A]: the self-cleavage worked out at 0.05.

With GGCAGAGUUCAACAGAGCGUGGCGAAGUGGCUGUGGCUAGACUGCC [C8U C15G A24G], the self-cleavage was found to be 0.02.

Take GGCAGAGUUCAACAUAGCGAGCCAAAGUGGCUGUGGCUAGACUGCC [C8U C15U U20A G22C]: the self-cleavage came out at 1.05.

GGCAGAGUUCAACACAGAGUGGCAAAGUGGCUGUGUCUAGACUACU [C8U C18A G36U G44A C46U]: the self-cleavage turned out to be 0.16.

As for GGCAGAGUUCAACACAGAGUGCCAAAGUGGCUGUAGAUAGACUGCC [C8U C18A G22C G35A C37A], the self-cleavage amounted to 0.07.

Turning to GGCAGAGUUCAAGAAAGCGUGGCAAAGUGGCUGUAGCUAGACUGCC [C8U C13G C15A G35A], the self-cleavage came out at 0.13.

Consider GGCAGAGUUCAACAACGCGUGGCAAAGUGGCUGGGGGUAGACUGCC [C8U C15A A16C U34G C37G], for which the self-cleavage worked out at 0.04.

Consider GGCAGAGUUUAACACAGCGUGGCAAAGUGGCUGUGGCUAUACUGCC [C8U C10U G40U], for which the self-cleavage was 0.08.

In the case of GGCAGAGUUGAACACAGCGUGGCAAAGUGCCUGUGGCCAGACUGCC [C8U C10G G30C U38C], the self-cleavage worked out at 0.02.

Regarding GGCAGAGUUCAACACAACGUGGCAUAGUGGCUUUGGCUAGAAUGCG [C8U G17A A25U G33U C42A C46G], the self-cleavage amounted to 0.1.

As to GGCAGAGUUCAACACAGCGUGGCAAAGUGGCUGUGGCUAGAAUGGC [C8U C42A C45G], the self-cleavage amounted to 0.14.

With GGCAGAGUUUAACUCAGCGUGGAAAAGUGGCUGUGGCUACACUGCC [C8U C10U A14U C23A G40C], the self-cleavage worked out at 0.01.

In the case of GGCAGAGUUCAACACAGCGUGGUAAAGUGGCUGUGGAUAGACUGCC [C8U C23U C37A], the self-cleavage came to 0.13.

Consider GGCAGAGUUCAACACAGCGUGGUAAAGUGGCUGUGGGUAGACUGCC [C8U C23U C37G], for which the self-cleavage worked out at 0.02.

Regarding GGCAGAGUUCAACACAGUGUGGCAAAGUGGCUAUGGCUAGACUGCC [C8U C18U G33A], the self-cleavage was found to be 0.02.

Regarding GGCAGAGUUCAACACAGCGUGGUAAAGUGGCCGUUGUUUGACUGCC [C8U C23U U32C G35U C37U A39U], the self-cleavage was 0.24.

Regarding GGCAGAGUUCAACACACCGUGGCAAUGUGGCAGUGGCUACAAUGCC [C8U G17C A26U U32A G40C C42A], the self-cleavage amounted to 0.06.

In the case of GGCAGAGUUCAACAGAGAGUGGCAAAGUGGCUGUGGCUAGACUGCC [C8U C15G C18A], the self-cleavage worked out at 0.01.

As for GGCAGAGUUCAAGACAGCGUGGCAAAUUGGCUGUGGCUAGACUGCC [C8U C13G G27U], the self-cleavage is 0.08.

Consider GGCAGAGUUCAACACAGGGUGGCAACGUGGCUGUGGCUAGACUGCC [C8U C18G A26C], for which the self-cleavage was found to be 0.05.

Take GGCAGAGUUCAACACAGAGUAGCAAAGUGGCUGUGGCUAGACUGCU [C8U C18A G21A C46U]: the self-cleavage stood at 0.64.

Regarding GGCAGAGUUCAACAUAGCGUGGAAAAGUGGCUGUGGCUAGAGUGCC [C8U C15U C23A C42G], the self-cleavage turned out to be 0.13.

Take GGCAGAGUUCAAAACACCGUGGCAAAGUGGCUGUGGCUAGACUGCU [C8U C13A G17C C46U]: the self-cleavage turned out to be 0.22.

For GGCAGAGUUCAAGACAGCCUGGCAAAGUGGCUGAGGCUAGACUGCC [C8U C13G G19C U34A], the self-cleavage was determined as 0.05.

In the case of GGCAGAGUUCAACACAGCGUGGCAAAGUGGCUGUGGAUACACUGCC [C8U C37A G40C], the self-cleavage worked out at 0.08.

In the case of GGCAGAGUUCAAGACAGCGCGGCAAAGUGUAUGUGGCUAGACUGCC [C8U C13G U20C G30U C31A], the self-cleavage came out at 0.11.

Regarding GGCAGAGUUCAAUACAGCGUGGCAAAGUGGCUGUGGCUAAACUGGC [C8U C13U G40A C45G], the self-cleavage turned out to be 0.19.

Turning to GGCAGAGUUCAACAUAACGUGGCAAAGUGGCUGUGGCUAGACUGCC [C8U C15U G17A], the self-cleavage was determined as 0.12.

For GGCAGAGUUUAACACAGCGUGGCAAAGUGGCUGUGGCUCGACUGCC [C8U C10U A39C], the self-cleavage is 0.08.

Consider GGCAGAGUUUAACACAGCGUGGCAGAGUGGCUGUGGCUAGACUGCC [C8U C10U A25G], for which the self-cleavage was found to be 0.01.

Turning to GGCAGAGUUCAACACAGCGUGGAAACGUGGCUUUGGCUAGACUGCC [C8U C23A A26C G33U], the self-cleavage was determined as 0.08.

Regarding GGCAGAGUUCAAAACAGCGUGGCAAAUUGGCUGUGCCUAGACUGCC [C8U C13A G27U G36C], the self-cleavage was 0.32.

With GGCAGAGUUCAACACAGAGCGACAAAGUGGCUGUGGCUAGACUGCC [C8U C18A U20C G22A], the self-cleavage amounted to 0.02.

As for GGCAGAGUUCAACACAGCGUGGCAAAGUGGGUGUGGCUAGACUGCU [C8U C31G C46U], the self-cleavage was 0.13.

Take GGCAGAGUUCAACACAGCGUGGUAAAGUGCCUAUGGCUAGACUGCC [C8U C23U G30C G33A]: the self-cleavage worked out at 0.29.

Take GGCAGAGUUCAACACAGCGUGGCAAAGUGGCUGUGGUCAGACUGCC [C8U C37U U38C]: the self-cleavage amounted to 0.14.

Regarding GGCAGAGUUCAACAGAGAGUGGCAAAGUGUAUGUGGCUAGACUGCC [C8U C15G C18A G30U C31A], the self-cleavage came out at 0.03.

As for GGCAGAGUUCAACACAGAGUGGCAAAGUGGCUGCGGCUAGACUGCC [C8U C18A U34C], the self-cleavage is 0.05.

In the case of GGCAGAGUUCAACACAGCGUGGCAAAGUGGCUGUGGGUAGACUCCC [C8U C37G G44C], the self-cleavage stood at 0.04.

In the case of GGCAGAGUUCAACAAAGCGUGGCAAAGAGGCUGUGGCUAGACUGGC [C8U C15A U28A C45G], the self-cleavage was determined as 0.32.

As to GGCAGAGUUCAACACACCGGGGCAGAGUGGCUAUGGCUAGACUGCC [C8U G17C U20G A25G G33A], the self-cleavage worked out at 0.11.

With GGCAGAGUUCAACAUAGCGUGACAAAAUGGAUGUGGCUAGAGUGCC [C8U C15U G22A G27A C31A C42G], the self-cleavage worked out at 0.04.

Take GGCAGAGUUCAACAUAGCGUGGCAAAGUAGCUGAGGCUAGACUGGC [C8U C15U G29A U34A C45G]: the self-cleavage amounted to 0.

GGCAGAGUUCAACAAAGCGUGGCAAAGUGGCUGUGGCUAGAAUGCC [C8U C15A C42A]: the self-cleavage stood at 0.2.

In the case of GGCAGAGUUGAACACAGCGAGGCAAAGUGACUGUGGCUAGACUGAC [C8U C10G U20A G30A C45A], the self-cleavage was found to be 0.

With GGCAGAGUUCAACACAGAGUGGCACAGUGGCUGUAGCUAGAUUGCU [C8U C18A A25C G35A C42U C46U], the self-cleavage stood at 0.1.

On to GGCAGAGUUCAACAAGGUGUGGCAAAGUGGCUGUGGCUAGACUCCC [C8U C15A A16G C18U G44C], for which the self-cleavage was 0.02.
